These results are taken from the supplement of paper PMC4967469.

IC50 is the fitted dose that halves viability relative to control wells, and lower means more sensitive; where the fit passes the top or lowest dose, that dose stands as a limit. AUC is the area under the same curve over the 256-fold range up to the top dose, as a fraction; it is 1 without any effect and falls as sensitivity rises. For some of these results: A top dose marked as inferred comes from the curve model; the source does not state it. For some of these results: An entry number marks a drug with two screens in the source, which often give different values.

What all share (assay): Viability of human cancer cell lines after 72 h of drug (GDSC screen)
Compound in one test: C[C@]1(O)C[C@@H](c2nc(-c3ccc4ccc(-c5ccccc5)nc4c3)c3c(N)nccn32)C1 [OSI-906]
The note with it: top dose 2.56 µM; top dose inferred. How it is done: (§1)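 Human cancer cell lines in 384-well plates, medium with 10% serum, drug for 72 h over a 256-fold dose range (nine 2-fold or five 4-fold steps up to the top dose). Adherent lines were fixed and stained with the nucleic acid dye Syto60, suspension lines read with resazurin; signal relative to control wells, capped at 0 and 100%. One two-parameter sigmoid per drug and line, fitted in a mixed model over all curves with the slope shared within a line.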

Compound in the next test: CCOc1nc(NC(=O)Cc2cc(OC)ccc2OC)cc(N)c1C#N [JNK Inhibitor VIII]
The settings on record: top dose 10 µM; top dose inferred. How it is done: as §1

Compound in a further test: COC(=O)[C@H](CCSC)NC(=O)c1ccc(NC[C@@H](N)CS)cc1-c1ccccc1 [FTI-277]
The note with it: top dose 1.024 µM; top dose inferred. As to the method:
as §1

Compound in a further test: c1ccc2c(CCNc3ccc(Nc4ccncc4)cc3)c[nH]c2c1 [JNJ-26854165]
The note with it: top dose 10 µM. How it is done:
as §1

Compound in another test: Cc1sc2c(c1C)C(c1ccc(Cl)cc1)=N[C@@H](CC(=O)OC(C)(C)C)c1nnc(C)n1-2 [JQ1]
As to the method: as §1

Compound in another test: Cc1ccc(C(=O)N(CCCN)[C@@H](c2nc3cc(Cl)ccc3c(=O)n2Cc2ccccc2)C(C)C)cc1 [SB-715992]
The note with it: top dose 0.128 µM; top dose inferred. As to the method: as §1

Compound in another test: CC1(C)CNc2cc(NC(=O)c3cccnc3NCc3ccncc3)ccc21 [AMG-706]
The note with it: top dose 2 µM; top dose inferred. How it is done: as §1

Compound in the next test: O=C(/C=C/c1cccc(S(=O)(=O)Nc2ccccc2)c1)NO [Belinostat]
The settings on record: top dose 20 µM; top dose inferred. How it is done:
as §1

Compound in the next test: COCC[n+]1c2c(n(Cc3cnccn3)c1C)C(=O)c1ccccc1C2=O [YM155]
The settings on record: top dose 5.12 µM. How it is done: as §1

Compound in another test: CN1CCN(c2ccc([N+](=O)[O-])c3no[n+]([O-])c23)CC1 [NSC-207895]
The settings on record: top dose 20 µM; top dose inferred. As to the method:
as §1

Compound in a further test: CC(=O)O[C@@]12CO[C@@H]1C[C@H](O)[C@@]1(C)C(=O)[C@H](O)C3=C(C)[C@@H](OC(=O)[C@H](O)[C@@H](NC(=O)OC(C)(C)C)c4ccccc4)C[C@@](O)([C@@H](OC(=O)c4ccccc4)[C@H]21)C3(C)C [Docetaxel]
The settings on record: top dose 0.0125 µM. How it is done:
as §1

Where [1] appears, read: top dose 1 µM, screen: GDSC drug entry 1218, top dose inferred.
The mark [2] stands for this setting: top dose 2.56 µM, screen: GDSC drug entry 163.

What is called IC50 is the midpoint of a concentration-inhibition curve. Take PANC-10-05 (pancreas, adherent): the AUC turned out to be 0.788 in the test with OSI-906; 0.976 with JNK Inhibitor VIII; 0.978 with FTI-277; 0.918 with JNJ-26854165; 0.961 with JQ1 (setting [1]); 0.715 in the test with JQ1 (setting [2]). The AUC was found to be 0.781 with SB-715992; 0.969 in the test with AMG-706; 0.364 with Belinostat; 0.055 with YM155; 0.962 with NSC-207895. In addition, the IC50 is 1490 nM with OSI-906; over 10000 nM with JNK Inhibitor VIII; over 1020 nM with FTI-277; over 10000 nM in the test with JNJ-26854165; over 1000 nM in the test with JQ1 (setting [1]); 781 nM in the test with JQ1 (setting [2]). For the same cell line, the IC50 with SB-715992 is 69.4 nM; with AMG-706, over 2000 nM; with Belinostat, 470 nM; in the test with YM155, under 20 nM; with NSC-207895 it was over 20000 nM.
As to PC-14 (lung adenocarcinoma, adherent), the AUC with OSI-906 was 0.975; with JNK Inhibitor VIII it was 0.984; with FTI-277 it was 0.966; with JNJ-26854165, 0.868; in the test with JQ1 (setting [1]), 0.987; in the test with JQ1 (setting [2]) it was 0.883. Besides, the AUC with SB-715992 stood at 0.552; with AMG-706 it was 0.984; with Belinostat it was 0.324; with YM155, 0.055; with NSC-207895 it was 0.934. For the same cell line, the concentration for half-maximal inhibition (IC50) with OSI-906 is over 2560 nM; in the test with JNK Inhibitor VIII, over 10000 nM; in the test with FTI-277 it was over 1020 nM; with JNJ-26854165, 7500 nM; in the test with JQ1 (setting [1]), over 1000 nM; with JQ1 (setting [2]) it was 2220 nM. The half-maximal inhibitory concentration (IC50) was 10.9 nM with SB-715992; over 2000 nM in the test with AMG-706; 428 nM with Belinostat; under 20 nM in the test with YM155; over 20000 nM with NSC-207895.
Regarding RCC-MF (kidney, adherent), the AUC with JNJ-26854165 amounted to 0.783; with JQ1 (setting [1]), 0.976; in the test with SB-715992, 0.8; with Belinostat, 0.317; with YM155 it was 0.191; with Docetaxel it was 0.895. Further, the AUC with NSC-207895 amounted to 0.919. The IC50 was 5600 nM with JNJ-26854165; over 1000 nM in the test with JQ1 (setting [1]); 84.1 nM in the test with SB-715992; 329 nM in the test with Belinostat; 27.7 nM with YM155; over 12.5 nM in the test with Docetaxel. Moreover, the IC50 in the test with NSC-207895 is over 20000 nM.
As for RERF-GC-1B (stomach, adherent), the AUC was 0.75 with OSI-906; 0.984 with JNK Inhibitor VIII; 0.981 with FTI-277; 0.905 with JNJ-26854165; 0.955 in the test with JQ1 (setting [1]); 0.6 with JQ1 (setting [2]). For the same cell line, the AUC turned out to be 0.95 with SB-715992; 0.937 with AMG-706; 0.767 with Belinostat; 0.267 with YM155; 0.807 with NSC-207895. Also, the IC50 with OSI-906 is 923 nM; with JNK Inhibitor VIII, over 10000 nM; in the test with FTI-277, over 1020 nM; with JNJ-26854165, over 10000 nM; with JQ1 (setting [1]) it was over 1000 nM; with JQ1 (setting [2]) it was 311 nM. For the same cell line, the IC50 with SB-715992 was over 128 nM; with AMG-706 it was over 2000 nM; with Belinostat, 8260 nM; in the test with YM155, 63.5 nM; with NSC-207895, 11800 nM.
As to “RERF-LC-KJ (lung adenocarcinoma, adherent)”, the AUC with OSI-906 was determined as 0.807; with JNK Inhibitor VIII it was 0.984; with FTI-277, 0.982; in the test with JNJ-26854165, 0.957; with JQ1 (setting [1]), 0.986; with JQ1 (setting [2]), 0.911. Further, the AUC with SB-715992 turned out to be 0.851; in the test with AMG-706, 0.973; in the test with Belinostat, 0.819; with YM155 it was 0.188; with NSC-207895 it was 0.982. Moreover, the IC50 was 1360 nM with OSI-906; over 10000 nM in the test with JNK Inhibitor VIII; over 1020 nM in the test with FTI-277; over 10000 nM in the test with JNJ-26854165; over 1000 nM with JQ1 (setting [1]); over 2560 nM with JQ1 (setting [2]). Besides, the half-maximal inhibitory concentration (IC50) with SB-715992 was 103 nM; with AMG-706, over 2000 nM; in the test with Belinostat it was 11800 nM; with YM155, 35.9 nM; with NSC-207895, over 20000 nM.
Consider RVH-421 (melanoma, adherent), for which the AUC with OSI-906 stood at 0.957; with JNK Inhibitor VIII it was 0.98; with FTI-277, 0.965; with JNJ-26854165, 0.851; with JQ1 (setting [1]) it was 0.963; with JQ1 (setting [2]), 0.743. Moreover, the AUC is 0.917 in the test with SB-715992; 0.977 in the test with AMG-706; 0.682 with Belinostat; 0.551 with YM155; 0.954 with NSC-207895. In addition, the half-inhibitory concentration (IC50) was over 2560 nM with OSI-906; over 10000 nM with JNK Inhibitor VIII; over 1020 nM with FTI-277; over 10000 nM with JNJ-26854165; over 1000 nM with JQ1 (setting [1]); 1050 nM with JQ1 (setting [2]). Moreover, the half-maximal inhibitory concentration (IC50) with SB-715992 was over 128 nM; with AMG-706 it was over 2000 nM; with Belinostat, 4900 nM; with YM155, 463 nM; with NSC-207895, over 20000 nM.
